From PubChem BioAssay AID493208 (National Center for Advancing Translational Sciences (NCATS), 2011)
Out of some 44,000 compounds screened, about 340 (0.77%) were called active. Another 5% or so got no clear call; they are omitted. The call rests on the fitted dose curve; in most records, active means well fitted inhibition curve with a large enough effect; inconclusive means small, poorly fitted or top-dose-only effect; inactive means flat fitted curve, though single readings scatter. This is one part of the list.

Assay: Acumen qHTS Assay for Inhibitors of the mTORC1 Signaling Pathway in MEF (Tsc2-/-, p53-/-) Cells: Sytravon;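 further: plate controls were DMSO for no effect and rapamycin for full effect; nearly all actives have a fitted effect of over 50% in size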
Conditions: phospho-rpS6 immunofluorescence/PI, 24 h; series mostly up to 38.3 µM; activity change, negative = inhibition: at the top concentration
Procedure, shortened: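 Tsc2-/-, p53-/- MEFs (empty-vector stable line) in DMEM + 10% FBS were treated with compounds 24 h at 37 degree Celsius, fixed, and immunostained for phospho-rpS6 (Alexa-488) with propidium iodide counterstain. Laser-scanning cytometry gave % positive cells, normalized against 7.5 nM rapamycin and DMSO.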

SMILES	activity change, negative = inhibition
CCOc1ccc(NC(=O)CN2C(C(=O)OC)=C(c3ccccc3)c3cc(Cl)ccc3S2(=O)=O)cc1	inactive: 0.693%
Cc1cc(=O)[nH]c2nnc(SCc3ccc(Cl)cc3)n12	inactive: -0.165%
COC(=O)C1=C(c2ccccc2)c2ccccc2S(=O)(=O)N1CC(=O)Nc1ccc(OC)cc1OC	inactive: -3.81%
Cc1ccc(Cl)cc1-n1ncc2c(N3CCC(C)CC3)ncnc21	inactive: -12.9%
Cc1ccc(CNC(=O)CN2CCN(Cc3ccc(F)cc3)C2=O)cc1	inactive: 19.2%
O=C(NCc1ccccc1)C1CCN(S(=O)(=O)c2ccc3[nH]c(=O)ccc3c2)CC1	inactive: -4.11%
COc1ccc(NC(=O)c2c(NCc3cccc(F)c3)sc3c2CCCC3)c(OC)c1	inactive: -3.91%
Cc1cc2nc(-c3cccc(NC(=O)COc4ccc(Cl)c(C)c4)c3)oc2cc1C	inactive: 2.19%
Cc1cccc(N(C)S(=O)(=O)c2c(C(=O)N3CCCCCC3)c(C)n(C)c2C)c1	inactive: 11.4%
COc1ccccc1NC(=O)C1CCN(S(=O)(=O)c2cn(C)cn2)CC1	inactive: 21.7%
COc1ccccc1-c1cc(NC(=O)COc2ccc(C)c(C)c2)n(-c2ccccc2)n1	inactive: -0.777%
CCOc1ccc(CCNC(=O)c2cnc3sc(N4CCCCCC4)nn3c2=O)cc1	inactive: 9.51%
COc1ccc(OC)c(NC(=O)CN2CCCN(Cc3cc(C)ccc3C)S2(=O)=O)c1	inactive: -6.84%
COc1ccc(-c2cc(C(F)(F)F)nc(SCC(=O)NCc3ccc(Cl)cc3)n2)cc1	inactive: -6.39%
Cc1cccc2c1-c1sc(C(=O)N3CCN(c4cccc(Cl)c4)CC3)cc1CO2	inactive: -2.26%
CC1=C(C(=O)Nc2ccc(F)cc2F)C2(CCCCCC2)OC1=O	inactive: -7%
O=C(CSc1nccn1Cc1ccc(Cl)cc1)NCc1ccccc1	inactive: -15.1%
CCOC(=O)c1ccc(N2C(=O)c3n[nH]c(-c4ccco4)c3C2c2ccc(F)cc2)cc1 (stereo not drawn)	inactive: -0.336%
COc1ccccc1CNC(=O)C(CC(C)C)N1Cc2ccccc2C1=O (stereo not drawn)	inactive: -11%
O=C(CN1C(=O)C2(SCC(=O)N2c2ccc(F)c(F)c2)c2ccccc21)Nc1ccccc1F (stereo not drawn)	inactive: -8.03%
Cc1cccc(CC(=O)NCCc2csc(-c3ccc(C(F)(F)F)cc3)n2)c1	inactive: -25.9%
Cc1ccc(C)c(C(=O)COC(=O)CCCC(=O)Nc2cc(C(F)(F)F)ccc2Cl)c1	inactive: -17.9%
CC(=O)Nc1cccc(NC(=O)CSc2cn(CC(=O)N3CCCCCC3)c3ccccc23)c1	inactive: -4.44%
CNC(=O)C1CCC(Cn2c(=O)c3sccc3n(CC(=O)Nc3cc(F)ccc3F)c2=O)CC1 (stereo not drawn)	inactive: -4.85%

SMILES	activity change, negative = inhibition
CCOC(=O)c1cccc(NC(=O)N2CCC(CN3CCCCCC3)CC2)c1	inactive: -8.26%
O=C(c1cn(CCOc2ccc(Cl)cc2)c2ccccc12)C1CCCCC1	inactive: 1.38%
COc1cn(CC(=O)Nc2cc(C)ccc2C)c(CN2CCCCC2)cc1=O	inactive: 1.39%
O=[N+]([O-])c1cc(-c2nc(-c3ccncc3)no2)ccc1NCc1ccccc1	inactive: -6.61%
COc1ccccc1NC(=O)C1=C(C)Nc2nc(SCc3ccccc3Cl)nn2C1c1ccncc1 (stereo not drawn)	inactive: -3.94%
CCN(CC)S(=O)(=O)c1ccc(C(=O)NCCSc2c(-c3ccc(OC)cc3)[nH]c3ccccc23)cc1	inactive: -11.3%
CCOc1ccc(C(=O)c2cn(CC(=O)Nc3cc(OC)ccc3OC)c3cc(OC)c(OC)cc3c2=O)cc1	inactive: -1.41%
COc1ccc(-c2ccc(=O)n(CC(=O)NCCc3ccccc3)n2)cc1	inactive: 0.8%
CCc1ccc(OCCSc2nc(-c3cccc(C)c3)nc3cc(=O)[nH]n23)cc1	inactive: -1.82%
COc1ccc(NC(=O)CCSc2nc(-c3ccco3)cc(C(F)(F)F)n2)cc1OC	inactive: -0.529%
O=C(CN1C(=O)C2(SCC(=O)N2c2ccc(F)cc2)c2ccccc21)NCCc1ccccc1 (stereo not drawn)	inactive: -5.67%
COc1ccc(NCc2nnc3n2CCCCC3)c(OC)c1	inactive: 6.64%
Cc1cc(C)cc(Nc2cc(C(=O)NCc3ccccc3)c3ccccc3n2)c1	inactive: -1.36%
O=C(Nc1ccccc1C(F)(F)F)c1cc2ccccn2n1	inactive: 3.27%
CCOC(=O)C1CCN(C(c2ccc(F)cc2)c2sc3nc(-c4ccco4)nn3c2O)CC1 (stereo not drawn)	inactive: 0.331%
Cc1cc(C)c(NC(=O)C(C)n2nnc3sc(-c4ccccc4)cc3c2=O)c(C)c1 (stereo not drawn)	inactive: -0.187%
CCOC(=O)c1cccc(NC(=O)c2cc3cc4ccc(C)cc4nc3s2)c1	inactive: -2.01%
CSc1ccc(CCNC(=O)c2cc3c(-c4ccccc4F)nn(C)c3s2)cc1	inactive: -11.9%
Nc1c(C(=O)NCc2ccccc2)nnn1Cc1cccc(Br)c1	inactive: -22.1%
Cc1cccc(NC(=O)Cn2c(=O)n(CCC(=O)N3CCc4ccccc4C3)c(=O)c3ccccc32)c1	inactive: 1.93%
CCOC(=O)c1cc(-c2ccc(F)cc2)n(CCC(=O)NC2CCCCC2)c1C	inactive: 0.962%
Cc1cc(C)cc(Nc2nc3c(S(=O)(=O)c4cccc(Cl)c4)nnn3c3ccsc23)c1	inactive: -6.5%
CC(=O)Nc1ccc(C(=O)CSc2nnc3ccc4ccccc4n23)cc1	inactive: -1.48%
CCOC(=O)c1cc2c(=O)n3ccccc3nc2n(C)c1=NC(=O)c1cc2ccccc2o1	inactive: 0.0798%
